According to PubChem BioAssay (NCATS):
“And” between values parts separate entries of the source, which are not always exact repeats. Equal entries are not always repeated. This list was built around the results that the source calls inconclusive (neither active nor inactive); the mix of calls is not that of the screen. Where the call is inconclusive, the potency comes from a doubtful curve fit. A structure can be active in one record and inactive in another. The source made the active and inactive calls. Calls follow the shape of the dose curve; as a rule, active = well fitted curve in the direction sought with a large enough effect; inconclusive = small, poorly fitted or top-dose-only effect, or another doubt; inactive = no such curve, though single readings can be large; an effect the other way counts as inactive or inconclusive.

Tests used:
HaCat = experiment: Cytotoxic Profiling of Annotated Libraries Using Quantitative High-Throughput Screening (AID 1296008); settings: Five cell lines viability, CellTiter-Glo ATP luminescence, 48-72 h; max response: stronger effect = lower value; also: nearly all actives have a fitted effect of over 60% in size
In short: (§1)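 Compounds were pin-transferred onto cells and incubated 48 or 72 hr at 37 degree Celsius, 95% humidity. CellTiter-Glo was added, plates sat 10 min at room temperature, then ATP-coupled luminescence was imaged as the viability read-out.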

KB-3-1 = experiment: as above; settings: Five cell lines viability, CellTiter-Glo ATP luminescence, 48-72 h; max response: stronger effect = lower value
In short: as §1

NIH3T3 = experiment: as above; settings: Five cell lines viability, CellTiter-Glo ATP luminescence, 48-72 h; max response: stronger effect = lower value
In short: as §1

astro = experiment: Drug repurposing screens with cells derived from glioblastoma tumor samples (AID 1345199); settings: viability, ATP luminescence, 48 h; series mostly up to 45.9 µM; also: nearly all actives have a fitted effect of over 40% in size
In short: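 Primary testing used CD133+ neurospheres from four GBM patients, seven concentrations, 48 h exposure and ATP-based viability; confirmation added three slower-growing patient lines.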

[1] = qHTS assay to identify inhibitors of the type 1 interferon - major histocompatibility complex class I in skeletal muscle: Counter screen cell viability and HiBit confirmation (AID 1347412); settings: iHSKM muscle cells + IFN-b, HiBiT or CellTiter-Glo, 24 h; also: nearly all actives have a fitted effect of over 60% in size
In short: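 Human myoblast knock-in line, 4.0 ng/ml IFN-beta stimulation, 24 h compound treatment. Endpoints: HiBiT lytic luminescence (HLA-B level) and CellTiter Glo (ATP). Dosing 12 concentrations, 3-fold steps, 46 uM highest final.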
Potency is read from the fitted curve at half-maximal effect; tags tell the direction and shape of the fitted curve.

Question: With `C[C@H]1CCC[C@H](O)CCC/C=C/c2cc(O)cc(O)c2C(=O)O1` as the molecule, how does the Potency (HaCat) read?
Answer: inconclusive: 23.1 µM [inhibitor, single point]

Question: And the Potency (KB-3-1)?
Answer: inconclusive: 29.1 µM [inhibitor, single point]

Question: What about the outcome (NIH3T3) of the same molecule?
Answer: inactive

Question: For `O=[N+]([O-])O[C@H]1CO[C@H]2[C@@H]1OC[C@H]2O[N+](=O)[O-]`, which Potency (HaCat) is on record?
Answer: inconclusive: 5.96 µM [inhibitor, partial curve, poor fit]

Question: And the Potency (KB-3-1)?
Answer: inconclusive: 23.1 µM [inhibitor, single point]

Question: What about the Potency (astro) of the same molecule?
Answer: inactive

Question: With `CCOc1ccccc1-n1c(C(C)N2CCN(C(=O)COc3ccc(Cl)cc3)CC2)nc2ccccc2c1=O` (stereo not drawn) as the molecule, how does the Potency (HaCat) read?
Answer: active: 18.6 µM

Question: And the Potency (KB-3-1)?
Answer: inconclusive: 29.1 µM [inhibitor, single point]

Question: What about the Potency (NIH3T3) of the same molecule?
Answer: active: 1.03 µM and active: 933 nM

Question: What does the source list for `CC1=CC2OC3CC(O)[C@](C)([C@@]2(C)C(O)C1=O)[C@]31CO1` (stereo partly drawn)?
Answer: Potency (HaCat): inconclusive: 29.1 µM [inhibitor, single point]; Potency (KB-3-1): active: 7.31 µM; Potency (NIH3T3): active: 4110 nM

Question: Which Potency (HaCat) does the source give for `CC(=O)OC[C@]12C[C@H](O)C(C)=C[C@H]1O[C@@H]1[C@H](O)[C@@H](OC(C)=O)[C@@]2(C)[C@]12CO2` here?
Answer: active: 0.0904 µM

Question: And the Potency (KB-3-1)?
Answer: active: 0.0321 µM

Question: What about the Potency (NIH3T3) of the same molecule?
Answer: active: 45.3 nM

Question: Which Potency (HaCat) does the source give for `Oc1cc(Cl)ccc1Oc1ccc(Cl)cc1Cl` here?
Answer: inconclusive: 49.5 µM [inhibitor, single point] and inconclusive: 33.5 µM [inhibitor, single point]

Question: And the Potency (KB-3-1)?
Answer: inconclusive: 39.8 µM [inhibitor, single point]

Question: And the Potency (NIH3T3)?
Answer: inconclusive: 44.2 µM [inhibitor, single point] and inconclusive: 29.9 µM [inhibitor, single point]

Question: What about the Potency (astro) of the same molecule?
Answer: inconclusive: 35.5 µM [inhibitor, single point] and active: 28.2 µM

Question: Which Potency (HaCat) does the source give for `O=c1[nH]c2ccc(Cl)cc2c(N[C@@H]2CN3CCC2CC3)c1-c1nc2ccccc2[nH]1` here?
Answer: active: 16.6 µM

Question: And the Potency (KB-3-1)?
Answer: active: 3.72 µM and inconclusive: 1.64 µM [inhibitor, full curve, poor fit]

Question: And the Potency (NIH3T3)?
Answer: active: 83.3 nM and active: 206 nM

Question: What about the Potency ([1]; Viability) of the same molecule?
Answer: active: 17.6 µM

Question: For `C=C(CO)[C@@]12O[C@@H]1[C@@]1(C)C(=CC2=O)CC[C@@H](O)[C@@H]1C`, which outcome (HaCat) is on record?
Answer: inactive

Question: And the Potency (KB-3-1)?
Answer: inconclusive: 20.6 µM [inhibitor, single point]

Question: What about the Potency (NIH3T3) of the same molecule?
Answer: active: 7310 nM

Question: Which Potency (HaCat) does the source give for `Cc1sc2c(c1C)C(c1ccc(Cl)cc1)=N[C@@H](CC(=O)OC(C)(C)C)c1nnc(C)n1-2` here?
Answer: inconclusive: 23.5 µM [inhibitor, partial curve, poor fit]

Question: And the Potency (KB-3-1)?
Answer: inconclusive: 0.662 µM [inhibitor, full curve]

Question: And the Potency (NIH3T3)?
Answer: inconclusive: 209 nM [inhibitor, full curve]

Question: What about the Potency ([1]; HiBiT) of the same molecule?
Answer: inconclusive: 1.11 µM [inhibitor, full curve]

Question: For `Cc1sc2c(c1C)C(c1ccc(Cl)cc1)=NC(CC(=O)OC(C)(C)C)c1nnc(C)n1-2` (stereo not drawn), which Potency (HaCat) is on record?
Answer: inconclusive: 18.4 µM [inhibitor, single point]

Question: And the Potency (KB-3-1)?
Answer: inconclusive: 5.17 µM [inhibitor, partial curve]

Question: And the Potency (NIH3T3)?
Answer: inconclusive: 651 nM [inhibitor, full curve]

Question: Which Potency (HaCat) does the source give for `CC=C(C)C(=O)N[C@@H](c1ccccc1)[C@@H](O)C(=O)O[C@H]1C[C@@]2(O)[C@@H](OC(=O)c3ccccc3)[C@@H]3[C@]4(OC(C)=O)CO[C@@H]4C[C@H](O)[C@@]3(C)C(=O)[C@H](OC(C)=O)C(=C1C)C2(C)C` here?
Answer: inconclusive: 0.001 µM [inhibitor]

Question: And the Potency (KB-3-1)?
Answer: active: 0.001 µM

Question: And the Potency (NIH3T3)?
Answer: inconclusive: 26.4 nM [inhibitor, full curve]

Question: Which results are given for `CCN1CCN(C(=O)Cc2ccc(Nc3ncc(F)c(Nc4ccc(C(=O)Nc5ccccc5Cl)cc4)n3)cc2)CC1`?
Answer: Potency (HaCat): inconclusive: 1.66 µM [inhibitor, full curve, poor fit]; Potency (KB-3-1): inconclusive: 2.35 µM [inhibitor, full curve]; Potency (NIH3T3): inconclusive: 16.6 µM [inhibitor, partial curve] and active: 20.6 µM; Potency ([1]; Viability): inconclusive: 49.7 µM [cytotoxic, single point]

Question: Which Potency (HaCat) does the source give for `C[C@@H]1[C@@H](CC(C[C@H]2O[C@@H]3O[C@]4(C)CC[C@@H]5[C@H](C)CC[C@@H]([C@H]2C)[C@@]35OO4)C[S+](=O)([O-])c2ccc(COC(=O)N(C)C)cc2)O[C@@H]2O[C@]3(C)CC[C@H]4[C@H](C)CC[C@@H]1[C@@]24OO3` (stereo partly drawn) here?
Answer: inconclusive: 1.32 µM [inhibitor, partial curve]

Question: And the Potency (KB-3-1)?
Answer: active: 1.32 µM

Question: And the Potency (NIH3T3)?
Answer: inconclusive: 526 nM [inhibitor, full curve, poor fit]
